Measurements taken from the supplement of paper PMC10338343.
± gives the standard deviation. The full ranking holds about 6,600 sequences; the median of “pre-steady-state target cleavage rate” is about 0.07, and the highest 2% start at about 0.72. Only a part is listed here, and it is no random draw.

tested on: MIWI (PIWIL1) piRISC loaded with Kctd7 piRNA (30 nt); experiment: pre-steady-state target cleavage rate (min^-1); MIWI and MILI are mouse PIWI proteins and EfPiwi is from a freshwater sponge; tags in brackets are library labels; higher = faster piRNA-guided slicing of the target; details: guide: Kctd7 piRNA 5'p-UGUUAAUCUCUCAGAGAAGGUGACAGUGAU; auxiliary factor: 500 nM mouse GTSF1
Procedure, shortened: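 With or without 500 nM GTSF1 partner protein, 1 nM active affinity-purified piRISC carrying one synthetic guide was mixed with 0.1 nM transcribed, DNA-blocked target RNA library in HEPES–potassium acetate buffer at 33 °C for 0–8 or 0–960 min. Uncleaved targets were sequenced and normalised to depth and to weakly complementary targets, three trials were pooled, and k3 was capped at 0.0001 min^-1. The pre-steady-state cleavage rate came from a burst-and-steady-state fit.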

Sequence | pre-steady-state target cleavage rate
AUCACUGUGACCUUCUCUGAGAGAUUUUGA | 0.0531 ± 0.011
UACACUGUCACCUUCUCUCGAGAGAUUAACA | 0.16 ± 0.059
AUCGCUGUCACCUUCUCUGAGAGAUUAACA | 0.825 ± 0.042
UAGUGUGUCACGAUCUCUGAGAGAUUAAGA | 0.0773 ± 0.013
UUCACUGUGUCCUUCUCUGAGAGAUUAUGA | 0.102 ± 0.02
UAGACUGUCACCUUGCUCUGAGAGAUUAACA | 0.358 ± 0.049
UAGUGAGUCACCUUCUCUGAGAGUAUUAACA | 0.272 ± 0.026
UUCUCUGUCUCCUUCUCUGAGAGAUUAACA | 0.539 ± 0.034
UACUCUGUCACCUACUCUGAGAGAUUAACA | 0.588 ± 0.038
UAGUGAGUGACCUUCUCAGAGAGAUUAACA | 0.226 ± 0.026
UACACUGUCACCUUCUCUGAGAGAUGAACA | 0.164 ± 0.029
UAGUGACAGUCCUUCAUCUGAGAGAUUAACA | 0.00688 ± 0.0025
UAGUGACACACCUUCUCUGAGAGAGUUAACA | 0.32 ± 0.048
UAGUGACACACUUUCUCUGAGAGAUUAACA | 0.496 ± 0.03
UAGUGUGUCAGCUUGUCUGAGAGAUUAACA | 0.313 ± 0.016
UAGUGACAGACUCUUCUCUGAGAGAUUAACA | 0.0358 ± 0.004
UAGUGACUUCACCUUCUCUGAGAGAUUAACA | 0.652 ± 0.038
UAGUGACAGUGCUUCUCUGAGGGAUUAACA | 0.0108 ± 0.0037
UACACUGUCACCAUCUCUGAGACAUUAACA | 0.108 ± 0.014
AUCACUCUCACCUUCUGUGAGAGAUUAACA | 0.0764 ± 0.011
UAGUGACACACCUUGUCUGAGAGUUUAACA | 0.0353 ± 0.013
AUCUCUCUCACCUUCUCUGAGAGAUUAACA | 0.214 ± 0.023
UUCACUGUCACCUUCUCUGAGAGUAAAAGA | 0.0745 ± 0.022
AUCACUGACACCUUCUCUGACAGAUUAACA | 0.418 ± 0.022

Sequence | pre-steady-state target cleavage rate
UUCACUGUCACCUUCUCUGACAGAUUAUCA | 0.0212 ± 0.0064
UAGUGACAGACCUUCUCUGAGAGAUUACCA | 0.0674 ± 0.012
UAGUGACAGUGGAAGAGACAGAAAUUAACA | < 0.0001
UACACUGUCACCUUCUGUGAGAGAUUAUCA | 0.0501 ± 0.013
UAGUGACACACCUUCUCUGAGAGAUUAAGA | 0.155 ± 0.029
UAGUGUGUCACCUUCUCUCACAGAUUAACA | 0.0203 ± 0.0078
UUCACUGUCACCUUCUCUGAGACUUUAAGA | 0.0101 ± 0.0043
UACACUGUCACCUUCUCUGAGAGAAUUACA | 0.221 ± 0.053
UAGUGACUGACCUUCUCUGAGAGAUUAAGA | 0.052 ± 0.011
UAGUGACAGUCCUUCUCUGAGAGUAAUUGA [g8:g20:cont:t1A] | < 0.0001
UAGUGACACACCUUCUCUGAGAGUUAAACA | 0.0294 ± 0.0094
AAGACUGUCACCUUCUCUGAGAGAUUUUGA | 0.00833 ± 0.0033
UACACUGUCAGGUUCUCUGAGAGAUUAAGA | 0.0532 ± 0.0098
AUCACUGUGUCCUUCUCUGAGAGAUAUUGA | 0.0103 ± 0.0042
AUCACUGUCACGUUCUCUGUGAGAUUAACA | 0.22 ± 0.013
UAGUGACUCACACUUCUCUGAGAGAUUAACA | 0.0999 ± 0.011
UAGAGACUCACCUUCUCUGAGAGAUUAACA | 0.597 ± 0.027
UACACUCUCACCUUGUCUGAGAGAUUAACA | 0.174 ± 0.025
AUGACUGACACCUUCUCUGAGAGAUUAACA | 0.646 ± 0.029
UACACUGUCACCUACUCUGUGAGAUUAACA | 0.202 ± 0.017
AAGUCUGUCACCUUCUCUGAGAGAUAUUGA | 0.0194 ± 0.0071
UACACUGUCACCUUGUCUGACAGAUUAACA | 0.221 ± 0.037
AUCACUGUCACCUUCUCUCUGAGAUUAUGA | 0.00839 ± 0.0048
AUCACUGUCACCAUCACUGAGAGAUUAACA | 0.481 ± 0.024

Sequence | pre-steady-state target cleavage rate
UAGACUCUCACCUUCUCUGAGAGAUAUUGA | 0.0531 ± 0.011
UAGUGACAGUGGAAGUCUGAGGGAUUAACA | < 0.0001
UUCACUGUCACCUUCACUGAGAGAAUAACA | 0.219 ± 0.048
UACACUGUCAGCUUCUCUGAGAGAUUUACA | 0.21 ± 0.022
UUCAGUGUCACCUUCUCUGAGAGAAUAACA | 0.26 ± 0.044
UACACUGUCACCUUCACAGAGAGAUUAACA | 0.0735 ± 0.013
UAGUGACUCACGUUCUCUGUGAGAUUAACA | 0.0459 ± 0.0042
UAGUGACACACCUUCUGUGAGACAUUAACA | 0.127 ± 0.018
UAGUGUGUCACGUUCUCAGAGAGAUUAACA | 0.206 ± 0.019
UAGUCUGUCCACCUUCUCUGAGAGAUUAACA | 0.474 ± 0.043
UUCACUGUCUCCUUGUCUGAGAGAUUAACA | 0.263 ± 0.039
AUCACUGUCACGUUCUCUGAGACAUUAACA | 0.00974 ± 0.0034
UAGUGUGUCAGGAUCUCUGAGAGAUUAACA | 0.0321 ± 0.0065
UAGUGAGUCACCUUCUCUGAGAGGAUUAACA | 0.266 ± 0.027
AUCACUGUCACCUUCUCAGAGAGAUUAUGA | 0.0679 ± 0.018
UACACUGUCACCUUCACUGAGAGAUUUACA | 0.365 ± 0.064
UAGUGACAGUGGAAGAGUGACAGAUUAACA | < 0.0001
UAGACUGUCACCUUUCUGAGAGAUUAACA | 0.5 ± 0.033
UAGUGUGUCACCUACUCUGAGAGAUAAACA | 0.321 ± 0.05
UAGUGAGUCACCGUUCUCUGAGAGAUUAACA | 0.453 ± 0.026
AUCUGAGUCACCUUCUCUGAGAGAUAUUGA | 0.0707 ± 0.016
UAGUCUGUCACCUUGUCUGAGACAUUAACA | 0.122 ± 0.02
UAGUGACAGACCUUCUGUGAGAGAAUAACA | 0.0119 ± 0.0044
UAGUGAGUGACCUUCUCUGAGACAUUAACA | 0.0514 ± 0.0074
